Source: PMC4336329 (PLoS ONE, 2015)
About 2,200 (0.71%) of roughly 310,000 compounds showed an effect of 50% or more. The effect is printed as a negative number. The list shows a part of the results.

molecular target: human ether-à-go-go-related gene (hERG) potassium channel (human, UniProt Q12809); experiment: primary screen, population patch clamp on CHO cells stably expressing hERG
Sequence (Q12809 whole entry, looked up): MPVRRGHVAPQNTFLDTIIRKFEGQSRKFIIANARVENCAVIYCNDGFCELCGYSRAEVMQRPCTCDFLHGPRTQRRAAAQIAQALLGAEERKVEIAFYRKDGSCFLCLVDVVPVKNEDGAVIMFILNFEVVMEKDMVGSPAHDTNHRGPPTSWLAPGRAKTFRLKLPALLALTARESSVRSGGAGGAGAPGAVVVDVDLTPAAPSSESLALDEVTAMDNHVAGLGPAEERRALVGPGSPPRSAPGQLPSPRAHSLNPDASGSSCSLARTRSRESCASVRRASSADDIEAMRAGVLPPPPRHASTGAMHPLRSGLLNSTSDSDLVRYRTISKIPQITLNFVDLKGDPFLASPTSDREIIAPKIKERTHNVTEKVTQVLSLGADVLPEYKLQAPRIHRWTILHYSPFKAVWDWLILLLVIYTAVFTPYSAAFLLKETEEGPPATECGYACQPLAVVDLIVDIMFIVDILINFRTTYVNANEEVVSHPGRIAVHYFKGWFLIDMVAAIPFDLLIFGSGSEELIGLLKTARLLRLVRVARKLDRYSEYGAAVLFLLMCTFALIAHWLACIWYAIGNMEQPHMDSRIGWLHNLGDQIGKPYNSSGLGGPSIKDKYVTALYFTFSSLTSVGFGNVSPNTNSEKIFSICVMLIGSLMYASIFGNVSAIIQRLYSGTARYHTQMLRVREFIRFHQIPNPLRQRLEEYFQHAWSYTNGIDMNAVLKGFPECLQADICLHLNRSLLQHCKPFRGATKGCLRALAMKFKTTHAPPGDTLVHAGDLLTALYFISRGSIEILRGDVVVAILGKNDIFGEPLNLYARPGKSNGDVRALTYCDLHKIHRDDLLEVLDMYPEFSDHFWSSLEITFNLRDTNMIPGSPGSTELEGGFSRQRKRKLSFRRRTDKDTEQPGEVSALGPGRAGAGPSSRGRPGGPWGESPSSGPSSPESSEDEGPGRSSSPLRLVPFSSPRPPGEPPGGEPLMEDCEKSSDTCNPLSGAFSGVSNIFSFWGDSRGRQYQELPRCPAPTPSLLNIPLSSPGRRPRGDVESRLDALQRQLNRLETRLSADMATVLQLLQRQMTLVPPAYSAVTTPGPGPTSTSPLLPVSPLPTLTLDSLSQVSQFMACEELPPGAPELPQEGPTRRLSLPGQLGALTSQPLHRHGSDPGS

SMILES	hERG current change (%, negative = inhibition) at 1uM [%]
CC(=O)c1ccc(NC(=O)COC(=O)c2c3c(nc4ccccc24)/C(=C\c2cccs2)CCC3)cc1	9.77
COc1cc(OC)cc(C(=O)OCc2cc3ccccc3[nH]c2=O)c1	8.7
COc1ccccc1-n1c(C)cc(C=O)c1C	8.45
CC(NCC1(N2CCOCC2)CCCCC1)C(=O)N1CCc2ccccc21.O=C(O)C(=O)O (stereo not shown)	7.84
Cc1ccccc1CSc1nncn1N	7.14
CC(C)N(Cc1nc(-c2ccccc2)no1)C(=O)c1ccc([N+](=O)[O-])cc1	-6.76
COc1ccc(CNc2ccccc2)cc1Br	-9.21
Cc1c(NC(=O)c2cccnc2)c(=O)n(-c2ccccc2)n1C	8.22
Cc1ccc(-c2nc(Cl)nc3ccccc23)cc1	16.9
COC(=O)c1ccc(NC(=O)c2cc(Cl)ccc2OC)cc1	20.5
COc1cc(/C=C(\NC(=O)c2ccccc2)C(=O)NCC(=O)O)c([N+](=O)[O-])cc1OC	15.7
COc1ccc(-n2c(SCC(=O)Nc3cc(C(=O)O)ccc3C)nc3ccccc3c2=O)cc1Cl	14.3
Cc1cccc(N2CC(C(=O)O)CC2=O)c1 (stereo not shown)	-0.186
O=C(CN1C(=O)NC2(CCCC2)C1=O)Nc1nc(-c2ccc(F)c(F)c2)cs1	0.722
O=C(NCCc1ccccc1)C(c1ccncc1)N(C(=O)c1csnn1)C1CC1 (stereo not shown)	4.45
Cc1cccc(N(C(=O)c2nsc(Cl)c2Cl)C(C(=O)NC2CCCC2)c2ccc(O)cc2)c1 (stereo not shown)	4.38
Oc1cc(-c2ccccc2)c2ccccc2c1	12.5
C/C(=N\N=C(N)N)c1cccc(Cl)c1	7.13
CCOc1ccc(-c2cc(C(=O)N/N=C/c3cccnc3)c3ccccc3n2)cc1	7.73
CN(CC(=O)Nc1cccc(F)c1)C(=O)c1ccc(N2CCCCCC2)c([N+](=O)[O-])c1	12.6

SMILES	hERG current change (%, negative = inhibition) at 1uM [%]
CCc1cccc(C)c1NC(=O)C(c1ccc(O)cc1)N1CCC1=O (stereo not shown)	14.9
COc1ccc(CCNC(=O)CSc2nnnn2-c2ccccc2)cc1	-1.76
COc1ccc(-c2onc(C)c2-c2cnn(-c3ccccc3)c2)c(O)c1C	11.7
Cc1c(-c2ccco2)[n+](=O)c2c(n1[O-])CCC2	9.94
Cc1cc(NC(=O)CSCc2ccccc2C)no1	9.86
O=C(CN1C(=O)C2CCCCC2C1=O)N1CCN(c2ccccc2)CC1 (stereo not shown)	14.8
CC(OC(=O)c1cccc(S(=O)(=O)N(C)C)c1)C(=O)NCc1ccc2c(c1)OCO2 (stereo not shown)	9.34
CC(CC(=O)N(C)C1CCCCC1)S(=O)(=O)c1ccc2c(c1)NC(=O)CO2 (stereo not shown)	15.4
O=C(COc1ccc(S(=O)(=O)N2CCOCC2)cc1Cl)NCC1CCCO1 (stereo not shown)	12
CC(C)c1c(C(=O)N/N=C/c2ccc3c(c2)OCO3)nnn1-c1nonc1N	15.5
O=C(CCCCCNC(=S)Nc1ccc(Cl)cc1)C[N+](=O)[O-]	8.23
COc1ccc(N2CCn3c2nc2c3c(=O)n(CCCc3ccccc3)c(=O)n2C)c(OC)c1	10.2
COc1ccc(-c2cn[nH]c2-c2ccc(OCc3ccccc3F)cc2O)cc1OC	6.47
Cc1c(C(=O)Nc2ccccc2)sc2nc(-c3ccccc3)cn12	6.33
CCc1cc(C(N)=O)c(NC(=O)c2ccc(OC)cc2)s1	1.31
Cl.c1ccc(OCCOCCN2CCc3ccccc3C2)cc1	-10.1
O=C(NOCc1ccccc1)c1ccc(Cl)cc1Cl	10.3
Cc1cc(C)cc(CN2C(=O)NC3(CCCCCC3)C2=O)c1	6.44
CS(=O)(=O)c1ccc2nc(NC(=O)C3COc4ccccc4O3)sc2c1 (stereo not shown)	7.41
S=C(Nc1ccc(Br)cc1Cl)NC1CCN(Cc2ccccc2)CC1	9.3

SMILES	hERG current change (%, negative = inhibition) at 1uM [%]
COc1ccccc1N1CCN(C(=O)c2cc(-c3cccc(Cl)c3)on2)CC1	2.1
CN1CCN(NC(=S)NC2CCCCC2)CC1	3.73
FC(F)(F)c1ccccc1NC(=S)N1CCc2ccccc2C1	15.6
CN1C(=O)C(c2nnc(Nc3cccc4ccccc34)s2)C2CC1(C)Oc1ccccc12 (stereo not shown)	2.76
CCOc1cc(CO)c(Br)cc1OCC(=O)O	2.28
Cc1cccc(N2CCN(S(=O)(=O)c3cnc[nH]3)CC2)c1C	17.8
Fc1ccc(Cn2nnnc2CN2CCC(n3nnc4cc(C(F)(F)F)ccc43)CC2)cc1	-38.7
Cc1ccc([N+](=O)[O-])cc1NC(=O)Cc1ccc(F)cc1	13.7
N#Cc1nc(COc2ccccc2)oc1N1CCCCC1	4.84
NS(=O)(=O)c1ccc(CCNC(=O)CN2CCCCCC2)cc1	5.82
CC1(C)CC(=O)C2=C(C1)N(CC1CCCO1)C(=O)C2(O)C(F)(F)F (stereo not shown)	4.33
CCCOC(=O)COC(=O)c1ccccc1NC(=O)c1ccccc1	11
Cc1ccc(C(C)NC(=O)Cn2nc(C)c([N+](=O)[O-])c2C)cc1 (stereo not shown)	4.75
O=C(Nc1cccnc1)NC1CCCCC1	2.5
Cc1cc(C(=O)Nc2cc(S(C)(=O)=O)ccc2Cl)no1	10.1
C(=C/c1ccnc2nc(SC/C=C/c3ccccc3)nn12)/c1ccccc1	4.9
Cc1cccc(OCCOC(=O)CN2C(=O)NC3(CCCC3)C2=O)c1	8.79
O=C(c1cc2ccccc2oc1=O)N1CCN(S(=O)(=O)c2ccccc2)CC1	4.8
